Measurements: PubChem BioAssay AID651567 (National Center for Advancing Translational Sciences (NCATS), 2012)
Out of some 1,200 compounds screened, about 10 (0.8%) were called active. About 4% were inconclusive and are not listed. Calls come from the whole dose curve; as a rule, active = well fitted inhibition curve with a large enough effect; inconclusive = small, poorly fitted or top-dose-only effect; inactive = no such curve, though single readings can be large or run the other way. The list shows a part of the results.

Assay: qHTS Assay to Find Inhibitors of Chronic Active B-Cell Receptor Signaling: Hit Validation in OCI-Ly3 Assay
Conditions: OCI-Ly3 IkB-luciferase reporter, Chroma-Glo luminescence, 4 h; series mostly up to 46.1 µM; activity change, negative = inhibition: at the top concentration
Text: Diffuse large B-cell lymphoma (DLBCL) is the most common category of non-Hodgkin lymphoma, with ~20,000 new cases per year in the United States. DLBCL should be regarded as a collection of different neoplasms. Microarray gene expression analysis has defined two principal types of DLBCL, named for their similarity to normal B cell stages or activation states: a germinal center B-cell (GCB) type, and an activated B-cell (ABC) type. In ABC-DLBCL, a constitutive high-level activity of the NF-kappaB family of transcription factors has been observed (1) and NF-kappaB target genes are more highly expressed in ABC primary tumors than in GCB tumors. Functional studies have shown a constitutive high-level activity of the IkappaB (inhibitor of kappa-B) kinase (IKK) complex. […] Further analysis of DLBCL primary tumors for NF-kappaB target gene expression imply that although CARD11 is required for constitutive IKK activity in all ABC-DLBCL lines, mutations in CARD11 may be the root cause of IKK activation only in lines or tumors with such mutations. In other words, CARD11 mutations may explain NF-kappaB activation in only 10% of ABC-DLBCL cases. […] This process has been termed 'chronic active BCR signaling' (CABS). The goal of this screen is to find small-molecule inhibitors of the CABS pathway found in ABC-DLBCL lines using a cell-based assay that measures IkappaBalpa stability, which has already been extensively validated in the OCI-Ly3 line (PubChem AID:445; REF: 4). […] Hits from the primary screen were tested in this selectivity secondary assay. NIH Molecular Libraries Probe Production Network [MLPCN] NIH Chemical Genomics Center [NCGC] MLPCN Grant: R03 DA031086 PI Name: Dr. R. Eric Davis
Cells were seeded in 1536-well plates at 5000 cells/3ul in IMDM medium containing 0.5% FBS, w/o phenol red, L-glutamine, 25 mM HEPES, 3 mg/ml sodium bicarbonate. After centrifugation for 1 min. at 1000 rpm, 23 nl of compounds or DMSO were delivered to each well using a pin tool. Then 1ul 80ng/ml doxycycline was dispensed into white solid 1536-well plates and the plates were incubated at 37C/5% C02 in a cell incubator for 4 hrs. Then 4 ul Chroma-Glo luminescent substrate mix (Promega) was added to each well. The plate was incubated at R.T. for 10-15 min. The plates were measured on a ViewLux plate reader for green luminescence (540/20 nm filter) and red luminescence (618/8 nm filter). The green and red luminescent signals were corrected for red and green luminescence filter overlap using previously determined filter calibration constants (determined using the procedure outlined in the Promega Technical Manual). The %Activity was determined from the ratio of corrected green/red luminescent values. Green luminescent and ratio %Activity was determined by normalizing to the difference in signal between basal cells (0% Activity) and cells incubated with 10 uM of the proteasome inhibitor MG-132 (100% Activity). Red luminescent %Activity was normalized to the difference between red luminesence in basal cells (0%Activity) and zero luminescence (-100% Activity). Concentration-response curves were fitted to the signals arising from the green luminescence (I-kappa-B-alpha-luciferase fusion; IkB-luc) and the red luminescence (unfused luciferase; luc) as well as the calculated ratio. The concentration-effect curves were then classified based on curve quality (r2), response magnitude and degree of measured activity. Compounds were then categorized based on their concentration-response curves for all three datasets (Ikb-luc, luc and ratio).
% is set by controls: 0 for no effect and ±100 for the full control effect.

Activity change, negative = inhibition, inactive:
COc1ccc(COc2cc(-c3cccc(OC)c3)nc3ccc(N)cc23)cc1 -8.19%
Cc1cc(Cl)ccc1OCCCC(=O)NO -1.47%
Cc1ccc(S(=O)(=O)N2CCCCC2CCNC(=O)C(=O)NCc2ccccc2)cc1 (stereo not given) -0.77%
OC(CNCc1ccc(-c2ccccc2)cc1)c1ccccc1 (stereo not given) 0.251%
COc1ccc(N/C=C/C(=O)c2cc(OC)c(OC)c(OC)c2)cc1 -3.76%
Cn1nc(C(F)(F)F)c(/C=N/OC(=O)c2ccccc2)c1Sc1ccc(Cl)cc1 -1.12%
Cc1ccccc1NC(=S)N=Nc1c(O)n(C)c2ccc(S(=O)(=O)N3CCOCC3)cc12 -18.4%
C=CCNC(=S)NN=C1CCCCCCC1 -0.547%
O=C(CSc1cccc[n+]1[O-])c1cc(Cl)ccc1Cl -6.48%
O=C(NCC(=O)N1CCCC(C(F)(F)F)C1)c1ccc(Oc2ccccc2)cc1 (stereo not given) -1.11%
COc1ccc(OC)c(-c2cc(C(=O)Nc3c(C)nn(Cc4ccccc4)c3C)no2)c1 -2.57%
CCOC(=O)c1[nH]c(C)c(C(=O)OCC)c1C -0.576%
COc1cc(NC(=O)c2cc(C(C)C)on2)cc(OC)c1OC -0.156%
CNC(=S)N/N=C1\C(=O)c2cccc3cccc1c23 -16.6%
CCN(CC)c1ccc(-c2nn3c(-c4n[nH]c5c4CCC5)nnc3s2)cc1 -7.08%
Fc1ccc(/C=N/NC(=S)Nc2cccnc2)cc1 0.501%
Fc1cccc2sc(Nc3nnc(-c4ccccc4)o3)nc12 21.3%
COc1ccc(C(=O)c2ccc(N(C)C)cc2)c2ccccc12 -4.15%
COc1ccccc1CNC(=O)CSC(=S)N1CCCC1 -0.636%
O=C(Nc1ncc(Cc2ccc(SC(F)F)cc2)s1)c1ccccc1 -2.3%
COc1cc(/C(C)=N/NC(=S)NC(C)C)cc(OC)c1OC -3.45%
COc1ccc(NS(=O)(=O)c2cc(-c3cnc(C4CC4)o3)ccc2C)cc1 -1.39%
O=S1(=O)[C@H]2C[C@H](CO)O[C@@]2(CO)CN1Cc1ccc(-c2cccc(Cl)c2)cc1 -0.904%
CCOc1cc(C(=O)N/N=C/C(Br)=C/c2ccccc2)cc(OCC)c1OCC -11.1%
COc1ccc(-c2cnnn2-c2ccc(NC(=O)c3ccc(S(=O)(=O)N4CCCCC4)cc3)cc2)cc1OC -2.07%
CCC1=Nc2cc(C(=O)NCCCOC(C)C)ccc2Sc2ccc(C)cc21 -4.12%
CC(C)N=C(NS(=O)(=O)c1ccccc1)C(Cl)(Cl)Cl -13.3%
CCC(=C/c1sc2ccc3ccccc3c2[n+]1C)/C=C1\Sc2ccc3ccccc3c2N1C -0.835%
CCOC(=O)C1=C(O)/C(=C/c2ccc(OCC(=O)O)c(OCC)c2)SC1=Nc1ccccc1 -0.0931%
C=CCN(CC=C)C(=S)NC(=O)c1ccc(OC)cc1 -0.681%
